Results on 45 compounds are retold here after article PMC4336329 (PLoS ONE, 2015).

The whole screen tested about 310,000 compounds, of which about 2,200 (0.71%) showed an effect of 50% or more. Effects have a minus sign here. The list shows a part of the results.

In the assay the target is human ether-à-go-go-related gene (hERG) potassium channel (human, UniProt Q12809). Put plainly: primary screen, population patch clamp on CHO cells stably expressing hERG.
human ether-à-go-go-related gene (hERG) potassium channel, sequence (Q12809 whole entry, looked up): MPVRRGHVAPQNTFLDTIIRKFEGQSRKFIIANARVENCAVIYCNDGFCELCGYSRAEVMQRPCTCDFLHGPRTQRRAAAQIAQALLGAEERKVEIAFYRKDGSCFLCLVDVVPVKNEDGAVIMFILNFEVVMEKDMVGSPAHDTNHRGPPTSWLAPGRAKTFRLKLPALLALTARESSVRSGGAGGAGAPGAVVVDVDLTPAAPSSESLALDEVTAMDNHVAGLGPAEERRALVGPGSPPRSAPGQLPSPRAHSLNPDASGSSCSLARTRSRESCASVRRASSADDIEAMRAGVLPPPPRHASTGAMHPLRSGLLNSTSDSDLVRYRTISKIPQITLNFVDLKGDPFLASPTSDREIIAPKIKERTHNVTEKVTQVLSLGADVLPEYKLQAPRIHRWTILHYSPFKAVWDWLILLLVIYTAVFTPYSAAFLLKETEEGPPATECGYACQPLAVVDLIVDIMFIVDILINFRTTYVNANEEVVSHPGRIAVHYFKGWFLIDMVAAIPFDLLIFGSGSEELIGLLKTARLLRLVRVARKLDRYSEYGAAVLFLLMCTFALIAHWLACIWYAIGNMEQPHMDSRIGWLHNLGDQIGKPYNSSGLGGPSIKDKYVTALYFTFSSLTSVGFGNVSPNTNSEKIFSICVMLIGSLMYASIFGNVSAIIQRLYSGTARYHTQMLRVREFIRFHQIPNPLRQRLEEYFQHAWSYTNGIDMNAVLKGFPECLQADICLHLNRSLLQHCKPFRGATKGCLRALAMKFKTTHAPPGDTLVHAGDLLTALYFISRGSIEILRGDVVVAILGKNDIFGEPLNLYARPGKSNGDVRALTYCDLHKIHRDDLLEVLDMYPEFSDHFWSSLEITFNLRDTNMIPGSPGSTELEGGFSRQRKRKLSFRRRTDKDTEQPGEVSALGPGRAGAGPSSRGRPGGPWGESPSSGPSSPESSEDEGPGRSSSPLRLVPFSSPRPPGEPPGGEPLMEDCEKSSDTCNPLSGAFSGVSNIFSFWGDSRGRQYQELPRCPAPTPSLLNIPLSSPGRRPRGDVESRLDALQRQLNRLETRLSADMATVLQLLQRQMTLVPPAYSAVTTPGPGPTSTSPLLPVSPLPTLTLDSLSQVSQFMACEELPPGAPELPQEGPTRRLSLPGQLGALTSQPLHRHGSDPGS
`Cc1ccc(C(=O)N2CCCC(CCC(=O)NCc3ccccc3F)C2)cn1` (stereo not drawn): the “hERG current change (%, negative = inhibition) at 1uM” value is given as 7.57%.

On to `O=C(C(=O)N1CCN(c2ccccc2)CC1)c1c[nH]c2ccccc12`, for which the “hERG current change (%, negative = inhibition) at 1uM” value is 7.38%.

Consider `COc1cc(NC(=O)Cc2ccccc2)ccc1NC(=O)c1ccco1`, for which the “hERG current change (%, negative = inhibition) at 1uM” value amounted to 12.4%.

`COc1ccc(-c2noc(Cn3cc(S(=O)(=O)N4CCCC4)ccc3=O)n2)cc1`: the “hERG current change (%, negative = inhibition) at 1uM” value came to 0.255%.

Take `COc1ccc(OC)c(CCNC(=O)CCCc2nnc3n(C)c(=O)c4sccc4n23)c1`: the “hERG current change (%, negative = inhibition) at 1uM” value was 8.24%.

On to `CCc1nnc(NC(=O)CSc2nc3cc(OC)c(OC)cc3cc2C)s1`, for which the “hERG current change (%, negative = inhibition) at 1uM” value turned out to be 6.22%.

As for `COc1cc2c(cc1OC)C(c1cc([N+](=O)[O-])ccc1O)NCC2` (stereo not drawn), the “hERG current change (%, negative = inhibition) at 1uM” value was determined as 17.8%.

With `COCCNC(=S)N(CCc1c(C)[nH]c2ccc(C)cc12)Cc1cc(OC)c(OC)c(OC)c1`, the “hERG current change (%, negative = inhibition) at 1uM” value was 5.11%.

In the case of `O=C(NCc1cccs1)C1CC1`, the “hERG current change (%, negative = inhibition) at 1uM” value is reported as 10.1%.

On to `COc1ccc(C)cc1S(=O)(=O)N(C)CC(=O)N1CCCC1`, for which the “hERG current change (%, negative = inhibition) at 1uM” value came out at 13.4%.

Regarding `COc1ccccc1CNC(=O)CCS(=O)(=O)c1ccc2c(c1)CC(C)N2C(=O)C1CC1` (stereo not drawn), the “hERG current change (%, negative = inhibition) at 1uM” value came out at 12.4%.

Regarding `COc1ccc(C2C(C#N)=C(N)OC3=C2C(=O)CCC3)c(OC)c1OC` (stereo not drawn), the “hERG current change (%, negative = inhibition) at 1uM” value was determined as 1.32%.

As for `O=C(c1ccco1)N1CCN(S(=O)(=O)Cc2ccccc2Cl)CC1`, the “hERG current change (%, negative = inhibition) at 1uM” value was determined as 0.503%.

For `COc1ccc(Cc2nnc(SCC(=O)c3ccccc3)o2)cc1`, the “hERG current change (%, negative = inhibition) at 1uM” value was determined as 6.46%.

Consider `O=C(NCCCN1CCCC1=O)Nc1ccc(Br)cc1Cl`, for which the “hERG current change (%, negative = inhibition) at 1uM” value stood at 2.47%.

`CCN(C(=O)COC(=O)C1=COCCO1)c1ccccc1`: the “hERG current change (%, negative = inhibition) at 1uM” value is recorded as 10.4%.

Take `Cc1cccc(OCC(=O)NCCCNC(=O)c2ccc(C)nc2)c1`: the “hERG current change (%, negative = inhibition) at 1uM” value came to 18%.

Take `Cl.Fc1ccccc1COc1ccccc1CNCc1ccncc1`: the “hERG current change (%, negative = inhibition) at 1uM” value was determined as 0.737%.

In the case of `COc1ccc(CNC(=O)C(=O)NC2CCC(C)CC2)cc1` (stereo not drawn), the “hERG current change (%, negative = inhibition) at 1uM” value was 10.8%.

With `CC(=O)NCCNC(=O)c1ccc(-n2c(C)ccc2C)cc1`, the “hERG current change (%, negative = inhibition) at 1uM” value stood at 10.7%.

On to `CNC(=O)CSc1nnnn1CCCOC`, for which the “hERG current change (%, negative = inhibition) at 1uM” value was found to be 2.02%.

Regarding `CC1Cc2ccccc2N1C(=S)NC(=O)c1cccc(Br)c1` (stereo not drawn), the “hERG current change (%, negative = inhibition) at 1uM” value is reported as 7.01%.

Turning to `CC(C)(C)c1ccc(S(=O)(=O)N2CCN(CC(=O)N3CC(=O)Nc4ccccc43)CC2)cc1`, the “hERG current change (%, negative = inhibition) at 1uM” value was determined as 7.09%.

For the compound `COc1ccc(C(=O)NCCc2ccc(F)cc2)cc1OC`, the “hERG current change (%, negative = inhibition) at 1uM” value is listed as 12.6%.

`C[C@H](NC(=O)c1nc[nH]c1C(=O)N[C@@H](C)C(=O)OCc1ccccc1)C(=O)OCc1ccccc1`: the “hERG current change (%, negative = inhibition) at 1uM” value is reported as 0.675%.

`COc1ccc(N2CCN(C(=O)Cc3ncc(C(F)(F)F)cc3Cl)CC2)cc1`: the “hERG current change (%, negative = inhibition) at 1uM” value is recorded as -10.4%.

For `CC1(C)Oc2ccc(C(=O)NC3CCCC3)cc2N(CC(=O)NC2CCCC2)C1=O`, the “hERG current change (%, negative = inhibition) at 1uM” value is listed as -6.77%.

As to `CC(Oc1ccccc1)c1ccnn1S(=O)(=O)c1ccccc1` (stereo not drawn), the “hERG current change (%, negative = inhibition) at 1uM” value was 18.7%.

Take `COc1ccccc1-c1nnc(SCC(=O)Nc2ccc3[nH]c(=O)[nH]c3c2)n1N`: the “hERG current change (%, negative = inhibition) at 1uM” value amounted to 12.6%.

In the case of `CCCS(=O)(=O)N1CCCC(C(=O)c2cccc(Cl)c2)C1` (stereo not drawn), the “hERG current change (%, negative = inhibition) at 1uM” value stood at 3.86%.

Consider `CC(C)(C)NC(=O)CSc1nc2scc(-c3ccccc3)c2c(=O)[nH]1`, for which the “hERG current change (%, negative = inhibition) at 1uM” value came out at 14.3%.

Consider `COc1ccccc1N1CCN(C(=O)COc2ccc(Cl)cc2Br)CC1`, for which the “hERG current change (%, negative = inhibition) at 1uM” value was 1.07%.

As to `Cc1ccsc1/C=C1/NC(=O)N(Cc2ccc(F)cc2)C1=O`, the “hERG current change (%, negative = inhibition) at 1uM” value was 6.45%.

`O=C(CCCOc1ccc(Cl)cc1Cl)NNC(=O)C1CCC1`: the “hERG current change (%, negative = inhibition) at 1uM” value came to 11.3%.

Consider `COc1cccc(C(=O)C2CCCN(Cc3c(C)n(C)n(-c4ccccc4)c3=O)C2)c1` (stereo not drawn), for which the “hERG current change (%, negative = inhibition) at 1uM” value worked out at 8.32%.

For the compound `O=C(CSc1n[nH]c(-c2cccs2)n1)NCCc1ccccc1`, the “hERG current change (%, negative = inhibition) at 1uM” value is -0.0149%.

On to `S=C([S-])N1CCCC1.[NH4+]`, for which the “hERG current change (%, negative = inhibition) at 1uM” value came to 17.4%.

As for `CCCc1cc(=O)n2[nH]c(NCc3ccc(Cl)cc3Cl)nc2n1`, the “hERG current change (%, negative = inhibition) at 1uM” value is listed as 7.27%.

As for `O=C(CSc1nncs1)NCc1ccc2c(c1)OCO2`, the “hERG current change (%, negative = inhibition) at 1uM” value came to 12.7%.

As to `Cc1ccc(N(C(=O)c2ccc(Br)o2)C2C=CS(=O)(=O)C2)cc1` (stereo not drawn), the “hERG current change (%, negative = inhibition) at 1uM” value is 7.95%.

Take `COC(=O)C1CCN(C(=O)COC(=O)c2oc3ccc(OC)cc3c2C)CC1`: the “hERG current change (%, negative = inhibition) at 1uM” value was 6.1%.

As for `C#CC1(O)C=CC2C3CCC4=CC(=O)CCC4C3CCC21CC` (stereo not drawn), the “hERG current change (%, negative = inhibition) at 1uM” value is -7.58%.

`Cc1cccc(C)c1-n1nnnc1S(=O)(=O)Cc1ccccc1Cl`: the “hERG current change (%, negative = inhibition) at 1uM” value was determined as 6.1%.

Take `COc1ccccc1C1=NN(C(=S)Nc2ccccc2)C(c2ccco2)C1` (stereo not drawn): the “hERG current change (%, negative = inhibition) at 1uM” value is 13%.

For `CN(C)C(=O)CSc1nnc([C@H](Cc2ccccc2)NC(=O)OC(C)(C)C)o1`, the “hERG current change (%, negative = inhibition) at 1uM” value is reported as 10.2%.
